Reference: PubChem BioAssay (NCI)
Several values for one entry are separate records, joined by “and”; a condition that tells them apart may be missing. Equal values may be shown once.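 In this assay, cells in 96-well plates receive the compound at five concentrations for 48 hours. Endpoints are linearly interpolated between the surrounding concentrations. GI50 = concentration required for 50% inhibition of growth. TGI denotes the concentration required for complete inhibition of growth.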

Tested on: NCI-H322M lung
Test: NCI-60 cell line screen, 48 h

SMILES	TGI	GI50 [µM]
Fc1ccccc1C1SCC2=Nc3ccccc3CN21 (centres undefined)	> 100 µM	
COc1ccc(C2=C(N)c3ccccc3C2=O)cc1	> 100 µM	
O=c1[nH]nc(Cc2ccc([N+](=O)[O-])cc2)[nH]1	> 100 µM	
COc1ccccc1OCC(COC(=O)Nc1ccc(C)cc1)OC(=O)Nc1ccc(C)cc1 (centres undefined)	> 100 µM	
COc1ccc(-c2nc(N)nc(-c3cc(C)ccc3O)c2Cl)cc1	> 100 µM	
COc1ccc(CNc2cnc3cc(N)ccc3n2)cc1OC	> 100 µM	
Nc1ccccc1C#Cc1ccccc1C#CCCCCO	89.3 µM	25.3
C=C1C[C@]23CC[C@@H]4C(CO)(CO)CC(=O)C[C@]4(C)[C@@H]2C(O)C[C@H]1C3 (some centres undefined)	> 100 µM	
CCn1cc(C2NC(=O)c3cc(F)ccc3N2)c2cccc(Cl)c21 (centres undefined)	> 100 µM	0.621
COc1ccc2c3c([nH]c2c1)[C@H]1C[C@H]2[C@H](C[C@@H](O)[C@H](OC)[C@H]2C(=O)O)CN1CC3	> 100 µM	
O=C(O)CCN1C(=O)/C(=C/C(Cl)=C/c2ccccc2)SC1=S	16 µM	4.26
Cc1ccc(Oc2cc(C)ccc2P(=O)(O)O)cc1	> 100 µM	
CC(=O)Nc1[nH]c(=O)[nH]c(=O)c1N(C(C)=O)C(C)=O	> 100 µM	
NC(=S)N1N=C(c2ccc3c(c2)CCC3)CC1c1ccccc1 (centres undefined)	> 100 µM	
CCOc1cc(C=Nc2ccc(Oc3ccc(Cl)cc3)c(Cl)c2)ccc1O	74.9 µM	
CC12CC(=O)NN=C1c1ccccc1C2 (centres undefined)	> 100 µM	
CN(c1ccccc1)c1c(-c2ccccc2)c(=O)oc2c1ccc1occc12	> 100 µM	
COc1cc([N+](=O)[O-])c2ncccc2c1O	5.58 µM	2.2
N#CC(/C(=N\NC(N)=S)C(=O)NC1C2CC3CC(C2)CC1C3)c1ccc(Cl)cc1 (centres undefined)	> 100 µM	
O=C(/C=C/c1cccs1)Nc1ncc(Cc2ccccc2F)s1	> 100 µM	0.612
CC(C)S(=O)(=O)n1c(N)nc2ccc(/C(=N/O)c3ccccc3)cc21	47.8 µM	
C=C1C(=O)O[C@H]2[C@@H](O)[C@H](C)CCC/C(C)=C/CC[C@@]3(C)O[C@@H]3C[C@@H]12	28.9 µM	
O=[N+]([O-])C(=C(c1ccccc1)c1ccccc1)[N+](=O)[O-]	31.3 µM	
NC(Cc1ccccc1)C(=O)O (centres undefined)	> 100 µM	
Cc1cc(=O)[nH]c(S(=O)(=O)NC(=S)Nc2ccc(Br)cc2)n1	> 100 µM	
CC(=O)Nc1oc(C)nc1C#N	> 100 µM	

SMILES	TGI	GI50 [µM]
NC(=NC1C2CC3CC(C2)CC1C3)Nc1ccc(I)cc1 (centres undefined)	14.8 µM	3.6
COc1cc2c(cc1OCc1ccccc1)NC(=O)[C@@H]1C[C@@H](O)CN1C2=O	> 100 µM	
CCNC1=CC(=O)c2ncccc2C1=O	2.95 µM	1.55
O=C(N/N=C\c1cc(Cl)ccc1O)N/N=C/c1cc(Cl)ccc1O	> 100 µM	8.1
O=C(n1c(=O)n(-c2ccc([N+](=O)[O-])cc2)c(=O)n1C(=O)C(Cl)(Cl)Cl)C(Cl)(Cl)Cl	> 100 µM	
O=C(O)C1(Cc2ccc3c(c2)CCC3)Cc2cc3c(cc2C1)CCC3	> 100 µM	
COCCOCCOCCOCCOc1ccc2c(c1)C(=O)c1nc3ncccc3c(=O)n1-2	1.73 µM	0.546
O=C1C(=O)C(CCCO)(CCCO)CCCCCCCCC1(CCCO)CCCO	> 100 µM	
CN(CCc1ccccn1)C(=S)N/N=C/c1ccccn1	35.6 µM	
CCOC(=O)c1cc2cc([N+](=O)[O-])ccc2oc1=O	> 100 µM	
C[Si](C)(C)[C@@]1([Se]c2ccccc2)CC[C@@H]1C(=O)c1ccccc1	> 100 µM	
O=C(NC(Cc1c[nH]c2ccccc12)C(=O)O)/C(=C/c1ccccc1)NC(=O)c1ccccc1 (centres undefined)	> 100 µM	
Brc1ccc2[nH]cc(-c3nc(-c4c[nH]c5ccncc45)cs3)c2c1	3.17 µM	1.75
CC1=NN(C(=O)Cc2ccccc2)C(=O)/C1=C\c1cccc(O)c1	> 100 µM	
CCSc1nn(-c2c3ccccc3nc3ccccc23)c(=S)s1	> 100 µM	
NC(=S)NS(=O)(=O)c1ccc(Cl)cc1Cl	> 100 µM	
Cc1ccc(N=Nc2cc(=O)[nH]c(=O)[nH]2)cc1C	31.9 µM	
Nc1ncnc2c(C3OC(CO)C(O)C3O)c[nH]c12 (centres undefined)	0.327 µM and 1.22 µM	0.0165
C/C(=N\NC(=S)Nc1ccc([N+](=O)[O-])cc1S(=O)(=O)O)c1ccccn1	96.9 µM	
COc1ccc(/C=C/CO)cc1OC	> 100 µM	
Nc1nc(Cl)cc(NCCCCCCCCCCNc2cc(Cl)nc(N)n2)n1	> 100 µM	
O/N=C1/CCCCC1NO (centres undefined)	> 100 µM	
COc1cc(C(=O)c2c(-c3ccccc3)oc3ccccc23)cc(OC)c1O	26.4 µM	4.44
c1ccc(CN(Cc2ccccn2)Cn2cccn2)nc1	> 100 µM	
Clc1ccc(CCN2CCOCC2)c(Cl)c1	> 100 µM	
CCn1c2ccccc2c2cc(NC(=O)c3c(C)[nH]c(=O)[nH]c3=S)ccc21	> 100 µM	

SMILES	TGI	GI50 [µM]
Cc1cc(C(=O)NCCN(C)C)c2nc3ccccc3nc2c1	35.2 µM	
Cc1ccc(Nc2ccnc(Nc3cccc(C(N)=O)c3)n2)cc1O	> 25 µM	2.33
O=C1C=Cc2noc3cccc1c23	29.7 µM	
Clc1cccc(C2SCc3nc4ccccc4n32)c1Cl (centres undefined)	36.8 µM	
C[C@H]1CC(=O)[C@@]2(O)C#C/C=C\C#C[C@@H]3Nc4c(cc(O)c5c4C(=O)c4ccccc4C5=O)[C@]24O[C@]314	0.669 µM and 1.18 µM	0.119
Fc1cc(Nc2ccc3c(OCCCN4CCOCC4)cccc3n2)ccc1Cl	8.09 µM	2.53
C=C(Cl)C(=C)CCC(Cl)C(C)(C)Cl (centres undefined)	> 100 µM	
CC1=CC(=O)c2[nH]c3ccccc3c2C1=O	> 25 µM	
Cc1cc(C(C)(C)C)c(OCCCN2CCOCC2)c(C(C)(C)C)c1	32.5 µM	
CCOC(=O)C1C2C1C1C(C(=O)OCC)C21 (centres undefined)	> 100 µM	
c1csc(-c2csc(-c3cccs3)c2)c1	> 100 µM	
Cn1cc(/C=C2\C(=O)Nc3cccnc32)c2ccccc21	> 25 µM	8.48
CCOc1ccc(N2C(N)=NC(N)=NC2(C)C)cc1	> 100 µM	> 100
Fc1ccc(-c2c(-c3ccncc3)n(CCN3CCOCC3)c3cccnc23)cc1	> 25 µM	> 25
O=c1c2cc(Cl)ccc2n2nnc3ccc(NCCNCCO)c1c32	2.57 µM	
Clc1cccc(Cl)c1C1ON=C(c2ccccc2)N1C12CC3CC(CC(C3)C1)C2 (centres undefined)	> 100 µM	
NC(=O)c1ccc(NC(=O)c2oc3ccccc3c2-c2cnn(-c3ccccc3)c2)cc1	> 100 µM	> 100
C=C1C(=O)O[C@H]2[C@H](OC(C)=O)[C@@H](C)CCC/C(C)=C/CC[C@]3(CO3)[C@H](O)C[C@@H]12	40.8 µM	18.2
CC[N+]1(C)CCC(O)(/C=C/c2ccc(Cl)c(Cl)c2)C(C(=O)/C=C/c2ccc(Cl)c(Cl)c2)C1 (centres undefined)	20.4 µM	
COc1ccc(/C=C(\C#N)c2nc(-c3cc4ccccc4oc3=O)cs2)cc1	> 100 µM	
CC1=C[C@H]2C[C@@]3(C)O[C@@H]([C@]4(C)CC[C@H]([C@@H](C)C(=O)O)OO4)CC3C(C)(C)[C@H]2CC1 (some centres undefined)	3.9 µM	
C#Cc1ccccc1C(=O)OC	> 100 µM	
O=C(O)C(O)C(O)C1[O][Sb][O]C1CO (centres undefined)	> 100 µM	> 100
CCOC(=O)Cn1c(C)nc2nn(Cc3ccccc3)cc2c1=O	> 100 µM	
COc1cc(/C=C/C=C2\CC(C)C/C(=C\C=C\c3ccc(O)c(OC)c3)C2=O)ccc1O (centres undefined)	> 100 µM	
NC(=O)c1ccc(-c2c3ccccc3cc3c2ccc2ccccc23)cc1	> 100 µM	7.59

SMILES	TGI	GI50 [µM]
Cc1nc(Nc2ccc([N+](=O)[O-])cc2)sc1C(=O)/C=C/c1ccc(N(C)C)cc1	> 100 µM	
CC(=O)N/N=C1\NN(C(C)=O)C2(S1)C(=O)Nc1ccccc12 (centres undefined)	> 100 µM	
COC(=O)[C@]12CCC(=O)N1[C@H](C(=O)O)Cc1c2[nH]c2ccccc12	> 100 µM	
C/C(=N\n1c(N)c(C#N)c(-c2ccc(Cl)cc2)c(C#N)c1=O)c1cccnc1	> 100 µM	> 100
CCC[CH2][Ge]([CH2]CCC)([CH2]CCC)[O]C(=O)CCl	19 µM	3.56
Cc1cn(C2CC(O)C(Cn3cc(Cn4nc(Br)c(=O)[nH]c4=O)nn3)O2)c(=O)[nH]c1=O (centres undefined)	> 100 µM	
CCc1ccc(/C=C2/SC(=S)NC2=O)cc1	> 100 µM	27.8
COc1cc(SC)ccc1C(=O)N1CCCC(C)C1 (centres undefined)	> 100 µM	> 100
Cn1cnc([N+](=O)[O-])c1Sc1nncc2[nH]cnc12	> 100 µM	
C=C1C(=O)C23C(CC(OC(C)=O)C1[C@@H]2OC(C)=O)C1(C)C(OC(C)=O)CCC(C)(C)C1C[C@@H]3OC(C)=O (some centres undefined)	3.14 µM	
N#CC(C#N)=C/C=C/c1cccc([N+](=O)[O-])c1	12.5 µM	2.68
O=[N+]([O-])c1ccc(-c2nc3ccccc3o2)cc1	> 100 µM	
COS(=O)CCOC(=O)c1ccccc1SSc1ccccc1C(=O)OCCS(=O)OC (centres undefined)	> 100 µM	
CN(C)CCCN1C(=O)N(CCCN(C)C)c2c3cc(O)ccc3nc3c([N+](=O)[O-])ccc1c23	45.4 µM	
CC(C)=CCC/C(C)=C/CCC1(C)C2COC(=O)C21 (centres undefined)	> 100 µM	
COc1ccccc1OCC(O)CO (centres undefined)	> 100 µM	> 100
O=C(O)c1c(Cl)c(Cl)c(Cl)c(Cl)c1-c1c2cc(I)c(=O)c(I)c-2oc2c(I)c(O)c(I)cc12	111 µM	39.9
COc1cc(/C=C2\N=C(c3ccccc3)N(c3ccc(C(=O)c4ccccc4)cc3N3C(=O)/C(=C/c4cc(OC)c(OC)c(OC)c4)N=C3c3ccccc3)C2=O)cc(OC)c1OC	> 100 µM	
O=C(O)c1cc2c(cc1CC(Cc1ccccc1)C(=O)O)CCC2 (centres undefined)	> 100 µM	
O=C1CCCc2c(O)ccc(O)c21	> 100 µM	
OCC(O)C(OC1OC(CO)C(O)C(O)C1O)c1nn(-c2ccc(F)cc2)c2nc3cc(Cl)c(Cl)cc3cc12 (centres undefined)	> 100 µM	
Nc1ncc(Cc2nn3c(COc4ccc(Cl)cc4)nnc3s2)s1	> 100 µM	
C[C@@H]1CC[C@H]2C(CN3CCN(CC4=C(C(F)(F)F)O[C@@H]5O[C@@]6(C)CC[C@H]7[C@H](C)CC[C@@H]4[C@@]57OO6)CC3)=C(C(F)(F)F)O[C@@H]3O[C@@]4(C)CC[C@@H]1[C@]32OO4	> 100 µM	41.4
CC(C)(C)c1ccc(C(O)(c2ccc(C(C)(C)C)cc2)c2ccc(C(C)(C)C)cc2)cc1	> 100 µM	
CCCCC[C@@H]1OC(=O)[C@@]2(CC3c4ccccc4C2c2ccccc23)[C@H]1C(=O)OC	> 100 µM	
Cc1cc2nnn(C3CCCO3)c2cc1C (centres undefined)	> 100 µM	
